Test results taken from PubChem BioAssay AID2147 (National Center for Advancing Translational Sciences (NCATS), 2009).
About 3,600 (1.6%) of roughly 230,000 compounds were called active. The shares of active, inactive and inconclusive entries below differ from those in the screen. Calls follow the shape of the dose curve; as a rule, active = well fitted inhibition curve with a large enough effect (not every such curve was filed as active); inconclusive = small, poorly fitted or top-dose-only effect, or another doubt; inactive = no such curve, though single readings can be large or run the other way. Where the call is inconclusive, the potency comes from a doubtful curve fit.

Each molecule was assayed against Lysine-specific demethylase 4E (Homo sapiens) (UniProt B2RXH2) (assay: qHTS Assay for Inhibitors of Human Jumonji Domain Containing 2E (JMJD2E)). Details: JMJD2E catalytic domain, FDH-coupled NADH fluorescence (FDH is formaldehyde dehydrogenase); series mostly up to 57.1 µM.
Also: nearly all actives have a fitted effect of over 50% in size.
Potency is read from the fitted curve at half-maximal effect; tags tell the direction and shape of the fitted curve.

UniProt B2RXH2, sequence (B2RXH2 whole entry, looked up, the tested form may be a part): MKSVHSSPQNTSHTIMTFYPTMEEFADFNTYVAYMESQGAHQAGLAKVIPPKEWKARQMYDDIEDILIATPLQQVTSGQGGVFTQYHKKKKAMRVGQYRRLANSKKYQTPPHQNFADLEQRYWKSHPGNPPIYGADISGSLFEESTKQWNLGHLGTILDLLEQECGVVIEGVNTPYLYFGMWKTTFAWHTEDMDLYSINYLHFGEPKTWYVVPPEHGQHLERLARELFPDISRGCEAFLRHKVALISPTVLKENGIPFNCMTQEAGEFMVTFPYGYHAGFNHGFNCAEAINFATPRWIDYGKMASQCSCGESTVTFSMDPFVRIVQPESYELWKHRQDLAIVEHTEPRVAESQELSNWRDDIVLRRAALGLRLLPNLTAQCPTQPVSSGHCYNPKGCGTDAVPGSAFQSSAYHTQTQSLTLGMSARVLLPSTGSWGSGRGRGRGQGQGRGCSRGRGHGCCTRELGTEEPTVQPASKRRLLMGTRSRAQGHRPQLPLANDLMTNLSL

Compound | Potency
CN1CCN(C(=O)CSc2nc(-c3cccs3)ccc2C#N)CC1 | inconclusive: 31.6 µM [inhibitor, partial curve]
COc1ccc(/C=N/NC(=O)OC(C)(C)C)cc1OC | inconclusive: 39.8 µM [inhibitor, single point]
COc1cc2c(cc1OC)C(c1cccs1)N(C(=O)c1cccc(S(=O)(=O)N(C)C)c1)CC2 (stereo unspecified) | inconclusive: 39.8 µM [inhibitor, single point]
O=C(/C=C/c1ccc([N+](=O)[O-])cc1)NCc1ccco1 | inactive
CCC(C)C(=O)Nc1nc(C)c(-c2csc(Nc3ccc(Cl)cc3)n2)s1 (stereo unspecified) | inactive
Cc1ccc(-n2ncc3c(N4CCN(c5ccccc5)CC4)ncnc32)c(C)c1 | inconclusive: 28.2 µM [inhibitor, single point]
CN(C(=O)Nc1cnc2ccccc2c1)c1ccccc1 | inconclusive: 31.6 µM [inhibitor, partial curve]
O=C1NC[C@H](Cc2ccccc2)N(CC2CCCCC2)C1=O | inactive
COc1ccc(OC)c(C2=NNC(=NCc3ccc4c(c3)OCO4)SC2)c1 | inconclusive: 35.5 µM [inhibitor, single point]
Cc1cc(C)n2c(SCC(=O)Nc3ncc(C(F)(F)F)cc3Cl)nnc2n1 | inactive
COc1cc2[nH]c(=S)nc(NC3CCCCCC3)c2cc1OC | inactive
COCCn1c(-c2ccc(OC(F)(F)C(F)C(F)(F)F)cc2)nc2c1c(=O)[nH]c(=O)n2CC(C)C (stereo unspecified) | inconclusive: 28.2 µM [inhibitor, partial curve]
Cc1ccc(CSc2nnc(-c3ccco3)o2)cc1 | inactive
CCOC(=O)c1[nH]c2ccc(OCC)cc2c1NC(=O)CN1CCN(c2ccccc2)CC1 | inconclusive: 28.2 µM [inhibitor, partial curve]
COc1ccc(-c2nc3ccccn3c2CN2CCN(c3ccccc3F)CC2)cc1 | inconclusive: 28.2 µM [inhibitor, partial curve]
O=C(NC(=S)N1CCN(c2ccccn2)CC1)c1ccccc1 | inactive
CCOC(=O)N1CCN(C(=O)c2ccc3c(c2)sc2nc(-c4ccc(OC)cc4)cn23)CC1 | inconclusive: 35.5 µM [inhibitor, single point]
Cc1ccc2nsnc2c1NC(=O)c1cccc([N+](=O)[O-])c1 | inconclusive: 35.5 µM [inhibitor, single point]
CN1CC=C2C(C#N)=C(N)C(C#N)(C#N)C(c3cccc(Cl)c3Cl)C2C1 (stereo unspecified) | inconclusive: 31.6 µM [inhibitor, partial curve]
CC(C)COc1ccc(C(=O)Nc2sc3c(c2C(=O)O)CC(C)(C)OC3)cc1 | inactive
CCOC(=O)c1cnn(-c2nc3c(C)cccc3s2)c1C(F)(F)F | inconclusive: 25.1 µM [inhibitor, partial curve]
O=C(OCC(=O)N1CCCCCC1)c1ccc(Cl)c(S(=O)(=O)N2CCCC2)c1 | inactive
O=C(COc1ccccc1)Nc1cccc(-c2nnc(-c3ccccc3)o2)c1 | inconclusive: 39.8 µM [inhibitor, single point]

Compound | Potency
CCN(c1ccccc1)S(=O)(=O)c1cc(C(=O)Oc2ccc3c(C)cc(=O)oc3c2)ccc1C | inconclusive: 15.8 µM [inhibitor, partial curve]
O=C(/C=C/c1ccccc1[N+](=O)[O-])NCCc1ccc(F)cc1 | inactive
CC(Nc1nc(N2CCOCC2)nc2ccccc12)c1ccccc1 (stereo unspecified) | inconclusive: 28.2 µM [inhibitor, partial curve]
CCCCNC(=S)Nc1ccc(Oc2ccccc2)cc1 | inactive
CSCCC(NS(=O)(=O)c1ccc(C)c(C(=O)O)c1)C(=O)O (stereo unspecified) | inconclusive: 39.8 µM [inhibitor, single point]
CCN(CC)C(=O)Cc1cc(C(=O)O)c2ccccc2n1 | inactive
Cc1ccc(NC(=O)c2nnn(-c3cccc(C(F)(F)F)c3)c2N)cc1 | inconclusive: 39.8 µM [inhibitor, single point]
CNc1ncnc2c1ncn2[C@H]1C[C@H](OP(=O)(O)O)[C@H](COP(=O)(O)O)O1 | inactive
CCSc1cc(C)nc2c(-c3ccc(Cl)cc3)c(C)nn12 | inconclusive: 7.08 µM [inhibitor, single point]
CCN(CC)c1ccc(-c2c(C#N)c(N)nc(OC)c2C#N)cc1 | inconclusive: 31.6 µM [inhibitor, partial curve]
Cc1cc(C)c2c(CCl)cc(=O)oc2c1 | inconclusive: 39.8 µM [inhibitor, single point]
Cn1c(=O)c(Oc2ccc(Cl)cc2)c(O)c2ccccc21 | inconclusive: 28.2 µM [inhibitor, partial curve]
CCCCP(=O)(CCCC)CCP(=O)(c1ccccc1)c1ccccc1 | inactive
CC(=O)c1ccc(-n2c(CCC(=O)O)ccc2-c2cccs2)cc1 | inconclusive: 20 µM [inhibitor, single point]
Cc1ccc(NC(=O)C(OC(=O)c2ccc(O)cc2)c2ccccc2)cc1Cl (stereo unspecified) | inactive
O=S(=O)(c1ccc(Cl)s1)N1CCN(C/C=C/c2ccccc2)CC1 | inconclusive: 31.6 µM [inhibitor, single point]
CCn1cc(C(=O)NCc2cccc(F)c2)c(=O)c2cc(F)c(N3CCN(C(=O)c4ccco4)CC3)cc21 | inconclusive: 28.2 µM [inhibitor, partial curve]
CC(=O)NS(=O)(=O)c1ccc(NC(=S)NC(=O)CC(C)C)cc1 | inactive
O=C(CSc1ccc2nnc(-c3ccc(F)cc3)n2n1)NCc1ccco1 | inconclusive: 35.5 µM [inhibitor, single point]
C=C1C(=O)C=C2CN(C(=O)c3ccccc3)[C@@](Cc3ccc(F)cc3)(C(=O)OC)[C@@H]12 | inconclusive: 39.8 µM [inhibitor, single point]
CC(=O)N(C)c1nnc(-c2cnccn2)s1 | inconclusive: 31.6 µM [inhibitor, single point]
CCOc1nc(NCc2ccco2)nc(Nc2ccc(OC)cc2)n1 | inactive
CCn1c(COc2ccccc2C)nnc1SCc1nc2ccccc2c(=O)[nH]1 | inactive
